Laboratory results: article PMC12820563, “FoxP3 forms a head-to-head dimer in vivo and stabilizes its multimerization on adjacent microsatellites”
The other results are listed elsewhere or left out.

molecular target: T1, MBP-FoxP1dN (Mus musculus, UniProt P58462 326-579); assay: PD-seq (MBP pull-down with sequencing); 20 mM Tris-HCl pH 7.5, 100 mM NaCl, 1.5 mM MgCl2, 0.4 uM protein, 0.1 uM dsDNA library, 30 min, room temperature, amylose pull-down; high values mean tight binding; details: protein: recombinant; tags: His6-MBP; chain copies: 2; dsDNA, one strand shown
T1 sequence: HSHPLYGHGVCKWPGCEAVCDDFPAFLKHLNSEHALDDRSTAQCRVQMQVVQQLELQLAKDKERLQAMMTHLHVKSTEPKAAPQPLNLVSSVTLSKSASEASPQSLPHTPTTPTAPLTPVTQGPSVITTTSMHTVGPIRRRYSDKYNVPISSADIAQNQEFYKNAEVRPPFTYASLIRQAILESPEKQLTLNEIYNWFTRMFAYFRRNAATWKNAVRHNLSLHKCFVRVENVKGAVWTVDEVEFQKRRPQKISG
Summary of the method: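 Mouse FoxP3 or FoxP1 fragment lacking the N-terminus, His6-MBP-tagged and expressed in E. coli, was incubated at 0.4 µM with 0.1 µM Klenow-filled degenerate double-stranded DNA library for 30 min at room temperature in Tris pH 7.5 buffer with NaCl and MgCl2. Complexes captured on amylose resin were washed three times and their DNA sequenced on Illumina. Binding is reads-per-million enrichment of pull-down over input, replicates pooled.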

| Sequence | binding signal |
| --- | --- |
| GATGATTGTTCTCCCAGCTGATGAATTGCTTGCCTCGAGTAAACAAATTTTCCTAATCTTTCTGTTCAAGCGCCATCTAC | 1.04 RPM ratio (pull-down/input) |
| GATGATTGTTCTCCCAGCTGATGAATTTATAGTTTCGAGTAAACAAATTTTCCTAATCTTTCTGTTCAAGCGCCATCTAC | 1.11 RPM ratio (pull-down/input) |
| GATGATTGTTCTCCCAGCTGATGAATTGCTACTTTCGAGTAAACAAATTTTCCTAATCTTTCTGTTCAAGCGCCATCTAC | 1.23 RPM ratio (pull-down/input) |
| GATGATTGTTCTCCCAGCTGATGAATTTTTTCTCTCGAGTAAACAAATTTTCCTAATCTTTCTGTTCAAGCGCCATCTAC | 0.83 RPM ratio (pull-down/input) |
| GATGATTGTTCTCCCAGCTGATGAATTGAATCGGTCGAGTAAACAAATTTTCCTAATCTTTCTGTTCAAGCGCCATCTAC | 0.838 RPM ratio (pull-down/input) |
| GATGATTGTTCTCCCAGCTGATGAATTTTGCCGTTCGAGTAAACAAATTTTCCTAATCTTTCTGTTCAAGCGCCATCTAC | 0.922 RPM ratio (pull-down/input) |
| GATGATTGTTCTCCCAGCTGATGAATTTTTCGAGTCGAGTAAACAAATTTTCCTAATCTTTCTGTTCAAGCGCCATCTAC | 0.859 RPM ratio (pull-down/input) |
| GATGATTGTTCTCCCAGCTGATGAATTAGAAGTTTCGAGTAAACAAATTTTCCTAATCTTTCTGTTCAAGCGCCATCTAC | 0.897 RPM ratio (pull-down/input) |
| GATGATTGTTCTCCCAGCTGATGAATTGGTATTGTCGAGTAAACAAATTTTCCTAATCTTTCTGTTCAAGCGCCATCTAC | 2.44 RPM ratio (pull-down/input) |
| GATGATTGTTCTCCCAGCTGATGAATTCGGAAAATCGAGTAAACAAATTTTCCTAATCTTTCTGTTCAAGCGCCATCTAC | 1.05 RPM ratio (pull-down/input) |
| GATGATTGTTCTCCCAGCTGATGAATTGCGGTTTTCGAGTAAACAAATTTTCCTAATCTTTCTGTTCAAGCGCCATCTAC | 1.24 RPM ratio (pull-down/input) |
| GATGATTGTTCTCCCAGCTGATGAATTCTTCACATCGAGTAAACAAATTTTCCTAATCTTTCTGTTCAAGCGCCATCTAC | 1.08 RPM ratio (pull-down/input) |
| GATGATTGTTCTCCCAGCTGATGAATTGAACTTCTCGAGTAAACAAATTTTCCTAATCTTTCTGTTCAAGCGCCATCTAC | 0.744 RPM ratio (pull-down/input) |
| GATGATTGTTCTCCCAGCTGATGAATTCAGTGCATCGAGTAAACAAATTTTCCTAATCTTTCTGTTCAAGCGCCATCTAC | 1.19 RPM ratio (pull-down/input) |
| GATGATTGTTCTCCCAGCTGATGAATTACTCGGCTCGAGTAAACAAATTTTCCTAATCTTTCTGTTCAAGCGCCATCTAC | 0.984 RPM ratio (pull-down/input) |
| GATGATTGTTCTCCCAGCTGATGAATTGCTCTGTTCGAGTAAACAAATTTTCCTAATCTTTCTGTTCAAGCGCCATCTAC | 0.993 RPM ratio (pull-down/input) |
| GATGATTGTTCTCCCAGCTGATGAATTTCTGTTATCGAGTAAACAAATTTTCCTAATCTTTCTGTTCAAGCGCCATCTAC | 1.69 RPM ratio (pull-down/input) |
| GATGATTGTTCTCCCAGCTGATGAATTCGCCTGCTCGAGTAAACAAATTTTCCTAATCTTTCTGTTCAAGCGCCATCTAC | 0.771 RPM ratio (pull-down/input) |
| GATGATTGTTCTCCCAGCTGATGAATTCAAGAGTTCGAGTAAACAAATTTTCCTAATCTTTCTGTTCAAGCGCCATCTAC | 0.821 RPM ratio (pull-down/input) |
| GATGATTGTTCTCCCAGCTGATGAATTCACTCTATCGAGTAAACAAATTTTCCTAATCTTTCTGTTCAAGCGCCATCTAC | 0.908 RPM ratio (pull-down/input) |
| GATGATTGTTCTCCCAGCTGATGAATTTAAAGTCTCGAGTAAACAAATTTTCCTAATCTTTCTGTTCAAGCGCCATCTAC | 0.851 RPM ratio (pull-down/input) |

| Sequence | binding signal |
| --- | --- |
| GATGATTGTTCTCCCAGCTGATGAATTATTGCTATCGAGTAAACAAATTTTCCTAATCTTTCTGTTCAAGCGCCATCTAC | 1.3 RPM ratio (pull-down/input) |
| GATGATTGTTCTCCCAGCTGATGAATTGCGGGGCTCGAGTAAACAAATTTTCCTAATCTTTCTGTTCAAGCGCCATCTAC | 0.905 RPM ratio (pull-down/input) |
| GATGATTGTTCTCCCAGCTGATGAATTACTCAGTTCGAGTAAACAAATTTTCCTAATCTTTCTGTTCAAGCGCCATCTAC | 1.14 RPM ratio (pull-down/input) |
| GATGATTGTTCTCCCAGCTGATGAATTAGATAACTCGAGTAAACAAATTTTCCTAATCTTTCTGTTCAAGCGCCATCTAC | 1.03 RPM ratio (pull-down/input) |
| GATGATTGTTCTCCCAGCTGATGAATTCGTTGTCTCGAGTAAACAAATTTTCCTAATCTTTCTGTTCAAGCGCCATCTAC | 1.01 RPM ratio (pull-down/input) |
| GATGATTGTTCTCCCAGCTGATGAATTCGGCAGGTCGAGTAAACAAATTTTCCTAATCTTTCTGTTCAAGCGCCATCTAC | 0.81 RPM ratio (pull-down/input) |
| GATGATTGTTCTCCCAGCTGATGAATTCCGTCTCTCGAGTAAACAAATTTTCCTAATCTTTCTGTTCAAGCGCCATCTAC | 0.818 RPM ratio (pull-down/input) |
| GATGATTGTTCTCCCAGCTGATGAATTGAAAAGTTCGAGTAAACAAATTTTCCTAATCTTTCTGTTCAAGCGCCATCTAC | 0.785 RPM ratio (pull-down/input) |
| GATGATTGTTCTCCCAGCTGATGAATTTAAGATGTCGAGTAAACAAATTTTCCTAATCTTTCTGTTCAAGCGCCATCTAC | 0.905 RPM ratio (pull-down/input) |
| GATGATTGTTCTCCCAGCTGATGAATTAGCCAATTCGAGTAAACAAATTTTCCTAATCTTTCTGTTCAAGCGCCATCTAC | 1.02 RPM ratio (pull-down/input) |
| GATGATTGTTCTCCCAGCTGATGAATTAACATACTCGAGTAAACAAATTTTCCTAATCTTTCTGTTCAAGCGCCATCTAC | 1.09 RPM ratio (pull-down/input) |
| GATGATTGTTCTCCCAGCTGATGAATTAATGAGATCGAGTAAACAAATTTTCCTAATCTTTCTGTTCAAGCGCCATCTAC | 0.846 RPM ratio (pull-down/input) |
| GATGATTGTTCTCCCAGCTGATGAATTGAAGTCATCGAGTAAACAAATTTTCCTAATCTTTCTGTTCAAGCGCCATCTAC | 0.885 RPM ratio (pull-down/input) |
| GATGATTGTTCTCCCAGCTGATGAATTGACAAACTCGAGTAAACAAATTTTCCTAATCTTTCTGTTCAAGCGCCATCTAC | 1.55 RPM ratio (pull-down/input) |
| GATGATTGTTCTCCCAGCTGATGAATTTCTCTGGTCGAGTAAACAAATTTTCCTAATCTTTCTGTTCAAGCGCCATCTAC | 0.845 RPM ratio (pull-down/input) |
| GATGATTGTTCTCCCAGCTGATGAATTTAGTCAGTCGAGTAAACAAATTTTCCTAATCTTTCTGTTCAAGCGCCATCTAC | 0.951 RPM ratio (pull-down/input) |
| GATGATTGTTCTCCCAGCTGATGAATTTTACTAGTCGAGTAAACAAATTTTCCTAATCTTTCTGTTCAAGCGCCATCTAC | 0.835 RPM ratio (pull-down/input) |
| GATGATTGTTCTCCCAGCTGATGAATTTTGATCCTCGAGTAAACAAATTTTCCTAATCTTTCTGTTCAAGCGCCATCTAC | 0.883 RPM ratio (pull-down/input) |
| GATGATTGTTCTCCCAGCTGATGAATTCGTCATTTCGAGTAAACAAATTTTCCTAATCTTTCTGTTCAAGCGCCATCTAC | 0.896 RPM ratio (pull-down/input) |
| GATGATTGTTCTCCCAGCTGATGAATTTCGCGCGTCGAGTAAACAAATTTTCCTAATCTTTCTGTTCAAGCGCCATCTAC | 0.972 RPM ratio (pull-down/input) |
| GATGATTGTTCTCCCAGCTGATGAATTTCTCGAGTCGAGTAAACAAATTTTCCTAATCTTTCTGTTCAAGCGCCATCTAC | 0.839 RPM ratio (pull-down/input) |

| Sequence | binding signal |
| --- | --- |
| GATGATTGTTCTCCCAGCTGATGAATTCAGCCGGTCGAGTAAACAAATTTTCCTAATCTTTCTGTTCAAGCGCCATCTAC | 0.799 RPM ratio (pull-down/input) |
| GATGATTGTTCTCCCAGCTGATGAATTCTCCATTTCGAGTAAACAAATTTTCCTAATCTTTCTGTTCAAGCGCCATCTAC | 0.871 RPM ratio (pull-down/input) |
| GATGATTGTTCTCCCAGCTGATGAATTCTGCTGTTCGAGTAAACAAATTTTCCTAATCTTTCTGTTCAAGCGCCATCTAC | 1.23 RPM ratio (pull-down/input) |
| GATGATTGTTCTCCCAGCTGATGAATTAACCTAGTCGAGTAAACAAATTTTCCTAATCTTTCTGTTCAAGCGCCATCTAC | 0.815 RPM ratio (pull-down/input) |
| GATGATTGTTCTCCCAGCTGATGAATTTGGATCCTCGAGTAAACAAATTTTCCTAATCTTTCTGTTCAAGCGCCATCTAC | 0.802 RPM ratio (pull-down/input) |
| GATGATTGTTCTCCCAGCTGATGAATTGGTAGTATCGAGTAAACAAATTTTCCTAATCTTTCTGTTCAAGCGCCATCTAC | 1.09 RPM ratio (pull-down/input) |
| GATGATTGTTCTCCCAGCTGATGAATTTCGCACGTCGAGTAAACAAATTTTCCTAATCTTTCTGTTCAAGCGCCATCTAC | 0.876 RPM ratio (pull-down/input) |
| GATGATTGTTCTCCCAGCTGATGAATTCGGTAATTCGAGTAAACAAATTTTCCTAATCTTTCTGTTCAAGCGCCATCTAC | 0.995 RPM ratio (pull-down/input) |
| GATGATTGTTCTCCCAGCTGATGAATTCGAAGGGTCGAGTAAACAAATTTTCCTAATCTTTCTGTTCAAGCGCCATCTAC | 0.726 RPM ratio (pull-down/input) |
| GATGATTGTTCTCCCAGCTGATGAATTCACTGGTTCGAGTAAACAAATTTTCCTAATCTTTCTGTTCAAGCGCCATCTAC | 0.869 RPM ratio (pull-down/input) |
| GATGATTGTTCTCCCAGCTGATGAATTGCGGTCATCGAGTAAACAAATTTTCCTAATCTTTCTGTTCAAGCGCCATCTAC | 1.05 RPM ratio (pull-down/input) |
| GATGATTGTTCTCCCAGCTGATGAATTGGATACGTCGAGTAAACAAATTTTCCTAATCTTTCTGTTCAAGCGCCATCTAC | 0.991 RPM ratio (pull-down/input) |
| GATGATTGTTCTCCCAGCTGATGAATTATGAGGCTCGAGTAAACAAATTTTCCTAATCTTTCTGTTCAAGCGCCATCTAC | 0.93 RPM ratio (pull-down/input) |
| GATGATTGTTCTCCCAGCTGATGAATTACTGAACTCGAGTAAACAAATTTTCCTAATCTTTCTGTTCAAGCGCCATCTAC | 0.945 RPM ratio (pull-down/input) |
| GATGATTGTTCTCCCAGCTGATGAATTGTACCTTTCGAGTAAACAAATTTTCCTAATCTTTCTGTTCAAGCGCCATCTAC | 0.954 RPM ratio (pull-down/input) |
| GATGATTGTTCTCCCAGCTGATGAATTTAGAGATTCGAGTAAACAAATTTTCCTAATCTTTCTGTTCAAGCGCCATCTAC | 0.992 RPM ratio (pull-down/input) |
| GATGATTGTTCTCCCAGCTGATGAATTGGTCGGTTCGAGTAAACAAATTTTCCTAATCTTTCTGTTCAAGCGCCATCTAC | 0.899 RPM ratio (pull-down/input) |
| GATGATTGTTCTCCCAGCTGATGAATTTGTGGACTCGAGTAAACAAATTTTCCTAATCTTTCTGTTCAAGCGCCATCTAC | 0.984 RPM ratio (pull-down/input) |
| GATGATTGTTCTCCCAGCTGATGAATTATGGAGGTCGAGTAAACAAATTTTCCTAATCTTTCTGTTCAAGCGCCATCTAC | 0.896 RPM ratio (pull-down/input) |
| GATGATTGTTCTCCCAGCTGATGAATTCCCGACGTCGAGTAAACAAATTTTCCTAATCTTTCTGTTCAAGCGCCATCTAC | 0.802 RPM ratio (pull-down/input) |
| GATGATTGTTCTCCCAGCTGATGAATTCCGCATATCGAGTAAACAAATTTTCCTAATCTTTCTGTTCAAGCGCCATCTAC | 0.854 RPM ratio (pull-down/input) |
